Assay results: PMC4336329 (PLoS ONE, 2015)
Among all 310,000 compounds or so, about 14,000 (4.5%) showed an effect of 50% or more. The effect is printed as a negative number. Some of the results follow.

The compounds below were run against human ether-à-go-go-related gene (hERG) potassium channel (human, UniProt Q12809) (assay: primary screen, population patch clamp on CHO cells stably expressing hERG).
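Further: peak tail current of the secondary pulse compared with the same well before compound.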

human ether-à-go-go-related gene (hERG) potassium channel, sequence (Q12809 whole entry, looked up): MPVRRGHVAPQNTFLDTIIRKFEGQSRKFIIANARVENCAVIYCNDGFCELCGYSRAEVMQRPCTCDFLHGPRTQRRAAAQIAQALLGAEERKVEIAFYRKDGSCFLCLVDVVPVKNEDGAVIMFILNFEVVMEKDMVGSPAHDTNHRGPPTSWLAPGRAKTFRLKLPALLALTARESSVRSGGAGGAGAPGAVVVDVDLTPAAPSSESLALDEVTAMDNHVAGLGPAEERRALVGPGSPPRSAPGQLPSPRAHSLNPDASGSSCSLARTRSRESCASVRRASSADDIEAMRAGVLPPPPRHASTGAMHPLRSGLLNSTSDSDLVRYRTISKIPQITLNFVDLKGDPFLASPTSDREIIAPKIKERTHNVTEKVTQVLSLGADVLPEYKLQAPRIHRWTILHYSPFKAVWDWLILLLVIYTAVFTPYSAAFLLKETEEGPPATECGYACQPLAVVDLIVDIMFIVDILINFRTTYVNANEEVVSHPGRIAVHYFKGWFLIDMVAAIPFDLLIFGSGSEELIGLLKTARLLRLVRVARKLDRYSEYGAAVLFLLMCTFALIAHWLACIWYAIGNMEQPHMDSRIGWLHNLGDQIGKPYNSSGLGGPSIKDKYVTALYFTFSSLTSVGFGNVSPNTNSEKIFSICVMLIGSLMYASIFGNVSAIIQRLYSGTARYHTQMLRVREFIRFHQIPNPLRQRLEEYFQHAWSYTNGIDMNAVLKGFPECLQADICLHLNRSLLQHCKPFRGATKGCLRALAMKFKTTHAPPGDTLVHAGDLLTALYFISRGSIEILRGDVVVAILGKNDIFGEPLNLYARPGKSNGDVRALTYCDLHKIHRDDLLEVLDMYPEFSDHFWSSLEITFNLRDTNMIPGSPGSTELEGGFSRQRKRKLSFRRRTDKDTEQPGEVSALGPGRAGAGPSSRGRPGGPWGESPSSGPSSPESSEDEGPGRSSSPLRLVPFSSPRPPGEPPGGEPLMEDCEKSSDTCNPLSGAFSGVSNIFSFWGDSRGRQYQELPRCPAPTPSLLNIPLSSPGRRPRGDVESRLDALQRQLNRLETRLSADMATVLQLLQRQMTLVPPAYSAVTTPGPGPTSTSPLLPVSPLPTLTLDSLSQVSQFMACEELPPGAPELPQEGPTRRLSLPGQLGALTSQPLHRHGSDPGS

Q: `CCO.Cn1c2c(c(=O)n(C)c1=O)C1(C(=O)Nc3ccccc31)C(C#N)=C(N)O2` (stereo not shown) was tested. Which “hERG current change (%, negative = inhibition) at 10uM” value did it give?
A: 8.3%

Q: Which “hERG current change (%, negative = inhibition) at 10uM” value does the source give for `Cn1c(=O)n(C)c2cc(S(=O)(=O)N3CCCc4ccccc43)ccc21` here?
A: -26.4%

Q: How did the “hERG current change (%, negative = inhibition) at 10uM” value turn out when `CCOC(=O)N1CCN(C(=O)c2ccc3nc(C)sc3c2)CC1` was run?
A: 23.6%

Q: With `CSc1ccc(C2NC(=O)c3c(sc4c3CCN(C)C4)N2)cc1` (stereo not shown) as the compound, how does the “hERG current change (%, negative = inhibition) at 10uM” value read?
A: -60.6%

Q: Which “hERG current change (%, negative = inhibition) at 10uM” value does the source give for `Cc1cccc(N2C(=S)NC3c4ccccc4OC2(C)C3C(=O)N(C)C)c1` (stereo not shown) here?
A: 8.88%

Q: How did the “hERG current change (%, negative = inhibition) at 10uM” value turn out when `CNC(=O)c1[nH]cnc1C(=O)N[C@@H](Cc1ccccc1)C(=O)OCc1ccccc1` was run?
A: 3.76%

Q: With `COc1ccc(C2N(c3ccc4c(c3)OCCO4)C(=O)C2(F)F)cc1OC` (stereo not shown) as the compound, how does the “hERG current change (%, negative = inhibition) at 10uM” value read?
A: -8.22%

Q: `CC(C)c1ccc(NC(=O)CNS(=O)(=O)c2ccc(F)cc2)cc1` was tested. Which “hERG current change (%, negative = inhibition) at 10uM” value did it give?
A: 3.89%

Q: Which “hERG current change (%, negative = inhibition) at 10uM” value does the source give for `C=C1CCN([C@@H](CC(C)C)C(=O)O)S(=O)(=O)c2ccccc21` here?
A: 22.6%

Q: `CC1CCc2c(sc(/N=C/c3cccnc3)c2C(N)=O)C1` (stereo not shown) was tested. Which “hERG current change (%, negative = inhibition) at 10uM” value did it give?
A: 10.8%

Q: `CC(C)CN(C(=O)COC(=O)c1ccc2c(c1)NC(=O)CS2)C1CCS(=O)(=O)C1` (stereo not shown) was tested. Which “hERG current change (%, negative = inhibition) at 10uM” value did it give?
A: 13.1%

Q: Which “hERG current change (%, negative = inhibition) at 10uM” value does the source give for `Cc1ccc(C(=O)N/C(=C/c2cccc([N+](=O)[O-])c2)C(=O)NCC2CCCO2)cc1` (stereo not shown) here?
A: -68.4%

Q: Which “hERG current change (%, negative = inhibition) at 10uM” value does the source give for `COc1ccc(-c2nc(-c3ccccn3)ncc2S(C)(=O)=O)cc1` here?
A: -7.31%

Q: How did the “hERG current change (%, negative = inhibition) at 10uM” value turn out when `COc1ccc(CNC(=O)CNC(=O)[C@@H]2Cc3ccccc3CN2)cc1` was run?
A: 17.4%

Q: Which “hERG current change (%, negative = inhibition) at 10uM” value does the source give for `CC(C)Cn1c(N)c(C(=O)NCCN2CCOCC2)c2nc3ccccc3nc21` here?
A: -72.7%

Q: Which “hERG current change (%, negative = inhibition) at 10uM” value does the source give for `COc1ccccc1-n1c(-c2cn(C)nc2C)n[nH]c1=S` here?
A: 18.4%

Q: How did the “hERG current change (%, negative = inhibition) at 10uM” value turn out when `COP(=O)(OC)C(O)C(Cl)(Cl)Cl` (stereo not shown) was run?
A: 22.7%

Q: `CCCCC/C=C/C1=CC(=O)C[C@H](c2ccc3c(c2)OCO3)C1` was tested. Which “hERG current change (%, negative = inhibition) at 10uM” value did it give?
A: -14.7%

Q: With `CCN1C(=O)[C@H]2[C@@H](c3ccc(-c4cccc(Cl)c4)cc3)N[C@@](Cc3ccccc3)(C(=O)OC)[C@H]2C1=O.O=C(O)C(F)(F)F` as the compound, how does the “hERG current change (%, negative = inhibition) at 10uM” value read?
A: 8.35%

Q: For `COc1cccc(CNC(=O)CCNS(=O)(=O)c2ccc(Br)s2)c1`, which “hERG current change (%, negative = inhibition) at 10uM” value is on record?
A: -10.2%

Q: How did the “hERG current change (%, negative = inhibition) at 10uM” value turn out when `O=C(/C=C/c1ccc(N2CCOCC2)cc1)c1ccccc1` was run?
A: -1.16%

Q: `Cc1ccc(-c2[nH]nc(N)c2N=Nc2ccccc2C)cc1` was tested. Which “hERG current change (%, negative = inhibition) at 10uM” value did it give?
A: 14.9%

Q: With `CC(=O)O[C@H]1CC[C@@]2(C)C(=CC[C@@H]3[C@@H]2CC[C@]2(C)C(=O)CC[C@@H]32)C1` as the compound, how does the “hERG current change (%, negative = inhibition) at 10uM” value read?
A: 21.1%

Q: With `CCN(CC)C(=O)CSc1nnc(-c2ccccn2)n1-c1ccc(C)c(C)c1` as the compound, how does the “hERG current change (%, negative = inhibition) at 10uM” value read?
A: -24.8%

Q: With `CCN(C(=O)C(C)N1C(=O)/C(=C/c2cccs2)SC1=S)C1CCS(=O)(=O)C1` (stereo not shown) as the compound, how does the “hERG current change (%, negative = inhibition) at 10uM” value read?
A: -27.3%

Q: With `COc1ccc(NC2CCCN(C(=O)C3(C)CCCCC3)C2)cc1OC` (stereo not shown) as the compound, how does the “hERG current change (%, negative = inhibition) at 10uM” value read?
A: 11.3%

Q: For `O=C(OCc1cccc([N+](=O)[O-])c1)c1ccncc1`, which “hERG current change (%, negative = inhibition) at 10uM” value is on record?
A: -18.8%

Q: `COCCNC(=O)CCn1nc(-c2ccc(C)cc2)ccc1=O` was tested. Which “hERG current change (%, negative = inhibition) at 10uM” value did it give?
A: -34.4%

Q: With `O=C(Cn1c(=O)n(Cc2ccccc2)c(=O)c2cc(Cl)ccc21)NCC1CCCO1` (stereo not shown) as the compound, how does the “hERG current change (%, negative = inhibition) at 10uM” value read?
A: -10.2%

Q: With `CC(C)C(C(=O)NCC1CCCO1)N(C(=O)CNS(=O)(=O)c1ccc(F)cc1)c1ccccc1` (stereo not shown) as the compound, how does the “hERG current change (%, negative = inhibition) at 10uM” value read?
A: -0.122%

Q: With `Cc1[nH]nc(-c2ccc(OCc3cnn(-c4ccccc4)c3)cc2O)c1Oc1ccc(Cl)cc1` as the compound, how does the “hERG current change (%, negative = inhibition) at 10uM” value read?
A: 13.6%

Q: `COc1cc(OC)c(Nc2cc(C)nc3nc(C)nn23)cc1Cl` was tested. Which “hERG current change (%, negative = inhibition) at 10uM” value did it give?
A: 6.1%

Q: With `Cc1ccc(Nc2nnc(SCC(=O)c3c(N)n(C4CC4)c(=O)[nH]c3=O)s2)cc1C` as the compound, how does the “hERG current change (%, negative = inhibition) at 10uM” value read?
A: 11.6%

Q: Which “hERG current change (%, negative = inhibition) at 10uM” value does the source give for `CSc1ncc(S(=O)(=O)c2ccccc2)c(=O)[nH]1` here?
A: 5.18%

Q: Which “hERG current change (%, negative = inhibition) at 10uM” value does the source give for `COc1cc(OC)c(OC)cc1CN1CCCC(C(=O)N2CCCCC2)C1.O=C(O)C(=O)O` (stereo not shown) here?
A: -1.45%

Q: `O=S1(=O)N=C(N/N=C/c2ccco2)c2ccccc21` was tested. Which “hERG current change (%, negative = inhibition) at 10uM” value did it give?
A: 13.1%

Q: How did the “hERG current change (%, negative = inhibition) at 10uM” value turn out when `O=C(CN1CCOCCOCCOCC1)Nc1ccccc1` was run?
A: 12.4%

Q: `O=C(Nc1ccc(Cl)cn1)c1ccc(-c2cc(Cl)ccc2Cl)o1` was tested. Which “hERG current change (%, negative = inhibition) at 10uM” value did it give?
A: -1.49%

Q: For `Cc1cc(C)nc(NC(=O)c2c(Cl)cccc2Cl)n1`, which “hERG current change (%, negative = inhibition) at 10uM” value is on record?
A: -1.27%

Q: With `CN(C)/C=C/C(=C\C(=O)C(F)(F)F)Nc1ccc(C(F)(F)F)cc1` as the compound, how does the “hERG current change (%, negative = inhibition) at 10uM” value read?
A: 2.83%

Q: With `O=C(NC(=S)Nc1ccc(S(=O)(=O)N2CCCCC2)cc1)c1cccs1` as the compound, how does the “hERG current change (%, negative = inhibition) at 10uM” value read?
A: 2.12%

Q: With `Cc1ccccc1CNC(=O)C1CCCN(c2nnc(C)c3c(C)n(-c4ccccc4)nc23)C1` (stereo not shown) as the compound, how does the “hERG current change (%, negative = inhibition) at 10uM” value read?
A: -5.38%

Q: With `CCOC(=O)c1c(NC(=O)COc2ncnc3ccccc23)sc(C)c1C` as the compound, how does the “hERG current change (%, negative = inhibition) at 10uM” value read?
A: -1.81%
